# Experimental data reported in PubChem BioAssay AID624417 (National Center for Advancing Translational Sciences (NCATS), 2012).
# In all, about 410,000 compounds went through this assay and about 6,400 (1.6%) were called active. The shares of active, inactive and inconclusive entries below differ from those in the screen. The call rests on the fitted dose curve; in most records, active means well fitted inhibition curve with a large enough effect; inconclusive means small, poorly fitted or top-dose-only effect; inactive means no such curve, though single readings can be large or run the other way. Potencies of inconclusive entries are left out as doubtful fits.
# Target: Glucagon-like peptide 1 receptor (Homo sapiens) (UniProt P43220)
# Assay: qHTS of GLP-1 Receptor Inverse Agonists (Inhibition Mode); further: nearly all actives have a fitted effect of over 55% in size
# Details: HEK293 GLP-1R CRE-luciferase, luminescence, 24 h, GLP-1R form is constitutively active; activity change, negative = inhibition: at 38.3 µM (top of the series) unless noted
# How it was run: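 HEK293 cells stably co-expressing constitutively active GLP-1R and a cAMP-responsive luciferase reporter were seeded in DMEM with 10% Nu serum, given compounds after 12 h, and incubated 24 h at 37 deg C. Luminescence was then read.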
# On the % scale 0 is the no-effect control and ±100 the full control effect; potency means the concentration at half of the fitted maximal effect; tags describe the fitted curve by direction and shape.
# Chain of UniProt P43220 (P43220 whole entry, looked up): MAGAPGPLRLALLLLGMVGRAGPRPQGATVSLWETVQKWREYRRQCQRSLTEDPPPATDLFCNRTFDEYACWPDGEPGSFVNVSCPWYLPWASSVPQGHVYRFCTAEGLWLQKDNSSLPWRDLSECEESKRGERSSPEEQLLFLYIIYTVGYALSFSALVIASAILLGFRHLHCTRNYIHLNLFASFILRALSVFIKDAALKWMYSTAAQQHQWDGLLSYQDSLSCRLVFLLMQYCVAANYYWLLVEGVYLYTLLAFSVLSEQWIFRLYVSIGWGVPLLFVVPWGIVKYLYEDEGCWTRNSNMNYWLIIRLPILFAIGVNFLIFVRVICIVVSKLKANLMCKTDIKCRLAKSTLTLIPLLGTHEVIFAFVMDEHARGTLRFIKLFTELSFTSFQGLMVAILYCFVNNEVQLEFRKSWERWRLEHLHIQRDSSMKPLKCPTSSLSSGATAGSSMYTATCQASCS
SMILES,Potency,"activity change, negative = inhibition"
O=C(NCc1ccc(F)cc1)c1ccc(N2CCc3ccccc32)c([N+](=O)[O-])c1,"inconclusive [inhibitor, partial curve, poor fit]",–
COc1cc(O)c2c(=O)c(-c3ccc(O[C@@H]4O[C@H](CO)[C@@H](O)[C@H](O)[C@H]4O)cc3)coc2c1,–,inactive: 92.8%
COc1cccc(-n2nnnc2SCC(=O)Nc2nc3c(s2)CCCC3)c1,"inconclusive [inhibitor, partial curve, poor fit]",–
CCOC(=O)C1CCN(C(=O)CC(C)c2ccccc2)CC1 (centres undefined),"inconclusive [inhibitor, single point]",–
O=C1c2cc(Cl)ccc2OC2(CCNCC2)C12CC(c1ccc(Cl)cc1)=NO2 (centres undefined),"inconclusive [inhibitor, single point]",–
COc1cc(/C=C2\N=C3CCCCCN3C2=O)ccc1O,–,inactive: -0.605%
COc1ccc(-c2cn3c(n2)sc2cc(C(=O)N4CCCCC4)ccc23)cc1,–,inactive: -2.56%
CCCSc1ccc(-c2nn(-c3ccccc3)cc2/C=C(/C#N)C(=O)N2CCOCC2)cc1,"inconclusive [inhibitor, partial curve, poor fit]",–
COc1ccccc1NC(=O)c1ccc(Cl)c(S(=O)(=O)N2CCCCC2)c1,"inconclusive [inhibitor, single point]",–
Cc1ccccc1C(=O)c1cccn1CC(=O)NC(C)c1ccccc1 (centres undefined),"inconclusive [inhibitor, partial curve, poor fit]",–
O=C(NCc1ccccc1Cl)c1cccc(NC(=O)c2ccccc2)c1,"inconclusive [inhibitor, partial curve]",–
COc1cnc(-c2ccccn2)nc1Sc1ccccc1,"inconclusive [inhibitor, partial curve, poor fit]",–
O=C(Nc1ccc(S(=O)(=O)N2CCc3ccccc3C2)cc1)c1ccccc1,"inconclusive [inhibitor, partial curve, poor fit]",–
O=C(NCCc1ccccc1)C1Cc2c(-c3ccccc3Oc3ccccc3)ccnc2O1 (centres undefined),"inconclusive [inhibitor, partial curve, poor fit]",–
Cc1ccc(NC(=O)C2CCCN(S(=O)(=O)c3c(C)noc3/C=C/N(C)C)C2)c(C)c1 (centres undefined),"inconclusive [inhibitor, single point]",–
COc1ccc(C(=O)CSc2nnc(-c3cccs3)n2-c2ccccc2)cc1,"inconclusive [inhibitor, full curve, poor fit]",–
O=[N+]([O-])c1cc(S(=O)(=O)C(F)(F)F)ccc1NCC1CCCO1 (centres undefined),"inconclusive [inhibitor, single point]",–
CCC(CC)c1nn2cc(-c3ccccc3)nc2s1,"inconclusive [inhibitor, partial curve]",–
Cn1cc(S(=O)(=O)N2CCCCC2)cc1C(=O)NCc1ccc(Cl)cc1,"inconclusive [inhibitor, partial curve, poor fit]",–
N#Cc1nc(-c2ccc(Cl)cc2)oc1NCCc1ccccn1,–,inactive: 37.3%
Fc1ccc(NC(=S)Nc2ccc(F)c(Cl)c2)cc1Cl,"inconclusive [inhibitor, single point]",–
O=C(O)c1ncc(-c2ccccc2)cn1,"inconclusive [inhibitor, full curve]",–

SMILES,Potency,"activity change, negative = inhibition"
CCOC(=O)Cc1c(C)nc2c(-c3cccc(Br)c3)cnn2c1C,–,inactive: 5%
Nc1c(-c2nc(-c3ccccc3Cl)no2)nnn1-c1ccccc1F,–,inactive: 5.87%
Cc1ccc(NC(=O)COc2ccc(-c3nn(C)c(=O)c4ccccc34)cc2)c(C)c1,–,inactive: 11.4%
Clc1ccccc1Oc1cnc2ccccc2n1,"inconclusive [inhibitor, single point]",–
O=C(CSc1nnnn1-c1ccc2c(c1)CCC2)NCc1cccs1,"inconclusive [inhibitor, single point]",–
CCC(CO)Oc1cc(NCc2ccccc2)c2ncn(C(C)C)c2c1 (centres undefined),–,inactive: 9.7%
C[C@H]1CN([C@@H](C)CO)S(=O)(=O)c2ccc(C3=CCCC3)cc2O[C@@H]1CN(C)C(=O)C1CCCCC1,"inconclusive [inhibitor, partial curve, poor fit]",–
CCc1c(-c2ccc(F)cc2)ncn1Cc1cccc(-c2ccccc2)c1,"inconclusive [inhibitor, partial curve, poor fit]",–
COc1ccc(NS(=O)(=O)c2cc(NC(=O)CCNC(C)=O)ccc2N2CCCCC2)cc1,–,inactive: -15.2%
CCc1ccc(-c2nc(CN3CCC(C(=O)N4CCN(c5ccccc5)CC4)CC3)c(C)o2)cc1,"inconclusive [inhibitor, full curve, poor fit]",–
COc1ccc2c(c1)[C@H]1[C@H](CO2)[C@H](c2ccccc2)[C@]2(C)C(=O)Nc3ccccc3C(=O)N12,"inconclusive [inhibitor, partial curve, poor fit]",–
CC(=O)C1=C(C)NC(SCc2cccc3ccccc23)=C(C#N)C1c1ccco1 (centres undefined),"inconclusive [inhibitor, partial curve, poor fit]",–
CCOc1ccc(C(=O)NC(=S)Nc2ccc(N3CCC(C)CC3)cc2)cc1[N+](=O)[O-],"inconclusive [inhibitor, partial curve, poor fit]",–
CCOC(=O)C1=C(C)C(c2ccccc2)NC(=S)N1 (centres undefined),–,inactive: 6.13%
O=C(NCC1CCCO1)c1ccc2c(c1)N(Cc1ccc(F)cc1)CCS2 (centres undefined),"inconclusive [inhibitor, partial curve, poor fit]",–
CCC(C)c1ccccc1OCCCN(C)Cc1ccccc1 (centres undefined),"inconclusive [inhibitor, single point]",–
CC(=O)N/C(N)=N/c1nc2cc([N+](=O)[O-])ccc2o1,–,inactive: 16.7%
Cc1cnc2c(c1)C(=O)c1ccccc1-2,–,inactive: 2.13%
COC(=O)c1cc(C)nc2c1c(=O)nc(SCc1c(C)cc(C)cc1C)n2C1CC1,"inconclusive [inhibitor, single point]",–
COc1cccc(NC(=O)Nc2ccc3c(c2)nc(C)n3C)c1,"inconclusive [inhibitor, single point]",–
CC(C)(C)c1ccc(OCCC(=O)Nc2cccc(S(=O)(=O)NC3=NCCCCC3)c2)cc1,"inconclusive [inhibitor, single point]",–
O=C(CCc1nc(-c2ccccc2)no1)NCc1cccnc1,"inconclusive [inhibitor, single point]",–

SMILES,Potency,"activity change, negative = inhibition"
Cc1cc(C)cc(NC(=O)c2cc(Cl)sc2Cl)c1,"inconclusive [inhibitor, single point]",–
O=C(c1n[nH]c(=O)c2ccccc12)N1CCOCC1,–,inactive: 12.5%
CCOC(=O)c1ccc(NC(=O)CN(c2ccc(C)cc2)S(=O)(=O)c2c(C)nn(C)c2C)cc1,"inconclusive [inhibitor, partial curve, poor fit]",–
Cc1ccc(C)c(S(=O)(=O)N2CCCC2CNC(=O)C(=O)NC2CCCCCC2)c1 (centres undefined),"inconclusive [inhibitor, partial curve]",–
Cc1sc2ncnc(N3CCCC(C)C3)c2c1C (centres undefined),"inconclusive [inhibitor, partial curve, poor fit]",–
Cc1ccc(S(=O)(=O)N(CC(=O)Nc2c(C)cccc2C)c2cccc(Cl)c2)cc1,"inconclusive [inhibitor, partial curve, poor fit]",–
CC(COc1ccccc1)N1CCC(CO)(Cc2ccccc2)CC1 (centres undefined),"inconclusive [inhibitor, full curve, poor fit]",–
CCCN(CC(=O)Nc1ccccc1C)C(=O)c1ccc(OCC(=O)N2CCOCC2)c(OCC)c1,–,inactive: 7.89%
O=C(Cn1cc(S(=O)(=O)Cc2ccccc2Cl)c2ccccc21)Nc1cccc(C(F)(F)F)c1,"inconclusive [inhibitor, partial curve, poor fit]",–
COc1ccc(CNc2nc3ccccc3n2Cc2ccc(Cl)cc2)cc1OC,"inconclusive [inhibitor, single point]",–
CC(NCC(O)COCc1cccs1)C1CC2CCC1C2 (centres undefined),–,inactive: 9.47%
CC(C)Oc1cccc(C(=O)Nc2ccc3oc(-c4ccccc4)nc3c2)c1,"inconclusive [inhibitor, single point]",–
COc1ccccc1N1C(=S)N=C(Nc2c(C)cccc2C)C12CCCC2,"inconclusive [inhibitor, partial curve, poor fit]",–
COc1ccc(NC(=O)NCCCN2CCN(c3cc(C)ccc3C)CC2)cc1,"inconclusive [inhibitor, partial curve, poor fit]",–
c1ccc(-n2nnnc2SCc2cccc(CSc3nnnn3-c3ccccc3)n2)cc1,"inconclusive [inhibitor, partial curve, poor fit]",–
Cc1cccc(C)c1OCC(O)CN1CCc2ccccc2C1 (centres undefined),active: 10 µM,–
OC[C@H]1O[C@H](c2nc(-c3nc(-c4cccs4)no3)cs2)C[C@@H]1O,"inconclusive [inhibitor, full curve, poor fit]",–
CCN(CC)CC(=O)Nc1ccc(C)cc1C(=O)c1ccccc1,"inconclusive [inhibitor, single point]",–
O=[N+]([O-])/C(C(Cl)=C(Cl)Cl)=C(/Sc1ccccc1)N1CCCCC1,"inconclusive [inhibitor, single point]",–
CN(Cc1ccccc1)C(=O)CSc1nnc(-c2ccco2)n1-c1ccccc1,"inconclusive [inhibitor, partial curve, poor fit]",–
